Experimental data taken from PubChem BioAssay (Tox21).
Where “and” joins values, the source holds several entries; their conditions need not be identical. Equal values may be shown once. The inconclusive results got no clear call from the source; some entries with a clear call stand among them for comparison. Potencies of inconclusive entries are doubtful fits and often do not repeat. Some compounds were tested as several samples or in several runs, with calls that do not always agree. Calls of active or inactive are those of the source. Unless noted, calls come from the whole dose curve; as a rule, active = well fitted curve in the direction sought with a large enough effect in the repeat runs; inconclusive = weak or mixed curves; inactive = no such curve, though single readings can be large; an effect the other way counts as inactive or inconclusive.

Tests used:
[1] = qHTS assay to identify aromatase inhibitors - cell viability counter screen (AID 743084); settings: MCF-7 aro ERE viability, CellTiter-Fluor, 24 h; activity change, negative = cytotoxicity: at 70.3 µM (top of the series);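 note: cells stimulated with testosterone during compound exposure; nearly all actives have a fitted effect of over 55% in size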; for activity change, negative = cytotoxicity: % is set by controls: 0 for no effect and ±100 for the full control effect
[2] = qHTS assay to identify small molecule that activate the aryl hydrocarbon receptor (AhR) signaling pathway - cell viability counter screen (AID 743086); note: nearly all actives have a fitted effect of over 45% in size
Outline: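 HepG2-AhR-luc (HG2L7.5c1) cells, 4000/well, were preincubated 5 h at 37C, exposed to compound in qHTS format for 24 hr at 37C, then given CellTiter-Fluor for 30 min; viability was read as fluorescence in the reporter wells.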

[3] = target: Peroxisome proliferator-activated receptor gamma (Homo sapiens) (UniProt P37231); assay: qHTS assay to identify small molecule antagonists of the peroxisome proliferator-activated receptor gamma (PPARg) signaling pathway (AID 743191; calls by dose curve; note: nearly all actives have a fitted effect of over 30% in size; for ratio activity, negative = inhibition: % is set by controls: 0 for no effect and ±100 for the full control effect); settings: HEK293H PPARg-UAS-bla, beta-lactamase ratio, antagonist, 17 h; ratio activity, negative = inhibition: at 62.6 µM (top of the series) unless noted
Chain of UniProt P37231 (P37231 whole entry, looked up): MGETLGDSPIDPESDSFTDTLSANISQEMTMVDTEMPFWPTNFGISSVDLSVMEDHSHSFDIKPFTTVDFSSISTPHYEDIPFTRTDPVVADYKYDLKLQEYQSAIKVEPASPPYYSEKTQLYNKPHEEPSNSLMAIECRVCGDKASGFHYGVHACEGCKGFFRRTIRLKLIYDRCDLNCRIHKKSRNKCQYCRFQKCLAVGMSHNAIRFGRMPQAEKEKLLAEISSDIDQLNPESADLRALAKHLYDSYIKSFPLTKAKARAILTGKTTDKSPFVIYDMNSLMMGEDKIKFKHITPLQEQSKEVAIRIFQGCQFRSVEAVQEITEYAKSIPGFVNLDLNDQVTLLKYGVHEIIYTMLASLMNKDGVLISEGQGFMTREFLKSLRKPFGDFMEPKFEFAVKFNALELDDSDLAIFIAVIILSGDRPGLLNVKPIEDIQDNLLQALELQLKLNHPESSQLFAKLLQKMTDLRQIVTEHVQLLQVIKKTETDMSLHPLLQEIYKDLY
Outline: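 GeneBLAzer PPARg UAS-bla HEK293H cells carrying a UAS-driven beta-lactamase reporter were plated at 3000 cells/well, preincubated 5 h at 37C, then given compound for 17 h at 37C; LiveBLAzer B/G FRET substrate was read after 1 h at room temperature.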

[4] = qHTS assay for small molecule agonists of the antioxidant response element (ARE) signaling pathway (AID 743202; active = well fitted activation curve with a large enough effect in the signal ratio in the repeat runs, not every such curve was filed as active; inconclusive = weak or mixed curves, or effect the other way; inactive = no such curve, though single readings can be large or run the other way; the % refers to the signal ratio; for activation: % is set by controls: 0 for no effect and ±100 for the full control effect); settings: HepG2 ARE-bla reporter, beta-lactamase FRET, 16 h; activation: at 73.3 µM (top of the series) unless noted
Outline: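 Compounds delivered in DMSO to ARE-bla HepG2 cells (2,000 cells/well, pre-incubated 5 h) and left 16 h at 37 C. LiveBLAzer B/G FRET substrate then added for 2 h at RT before fluorescence reading.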

[5] = qHTS assay for small molecule activators of the heat shock response signaling pathway - cell viability counter screen (AID 743209); settings: HSE-bla HeLa viability, CellTiter-Glo luminescence, 5 h; activity change, negative = cytotoxicity: at 62.6 µM (top of the series); note: nearly all actives have a fitted effect of over 50% in size
Outline: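 CellSensor HSE-bla HeLa cells, plated overnight at 37 C/5% CO2, were exposed to compounds in DMSO for 5 h at 37 C. Viability was then read in the same wells by CellTiter-Glo luminescence after 30 min at room temperature.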

[6] = qHTS assay for small molecule activators of the heat shock response signaling pathway (AID 743210; active = well fitted activation curve with a large enough effect in the signal ratio in the repeat runs, with a control signal flat, not every such curve was filed as active; inconclusive = weak or mixed curves; the % refers to the signal ratio); settings: HeLa HSE-bla reporter, beta-lactamase ratio, 5 h; activation: at 62.6 µM (top of the series)
Outline: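 Reporter gene assay: HeLa cells stably bearing an HSE-bla construct, compound treatment 5 h at 37 C, LiveBLAzer substrate 2.5 h at RT, fluorescence intensity.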

[7] = qHTS assay to identify small molecule agonists of the peroxisome proliferator-activated receptor delta (PPARd) signaling pathway - cell viability counter screen (AID 743211); settings: PPARd-bla HEK293H viability, CellTiter-Glo luminescence, 17 h; activity change, negative = cytotoxicity: at 62.6 µM (top of the series); note: nearly all actives have a fitted effect of over 55% in size; for activity change, negative = cytotoxicity: % is set by controls: 0 for no effect and ±100 for the full control effect
Outline: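 Viability was measured as CellTiter-Glo luminescence (30 min, room temperature) in the same wells as the beta-lactamase readout. GeneBLAzer PPARd UAS-bla HEK293H cells received compound after 5 h plating and were incubated 17 h at 37 C.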

[8] = target: Peroxisome proliferator-activated receptor delta (Homo sapiens) (UniProt Q03181); assay: qHTS assay to identify small molecule agonists of the peroxisome proliferator-activated receptor delta (PPARd) signaling pathway (AID 743212; calls by dose curve); settings: HEK293H PPARd-UAS-bla, beta-lactamase FRET ratio, 17 h; activation: at 62.6 µM (top of the series) unless noted
Chain of UniProt Q03181 (Q03181 whole entry, looked up): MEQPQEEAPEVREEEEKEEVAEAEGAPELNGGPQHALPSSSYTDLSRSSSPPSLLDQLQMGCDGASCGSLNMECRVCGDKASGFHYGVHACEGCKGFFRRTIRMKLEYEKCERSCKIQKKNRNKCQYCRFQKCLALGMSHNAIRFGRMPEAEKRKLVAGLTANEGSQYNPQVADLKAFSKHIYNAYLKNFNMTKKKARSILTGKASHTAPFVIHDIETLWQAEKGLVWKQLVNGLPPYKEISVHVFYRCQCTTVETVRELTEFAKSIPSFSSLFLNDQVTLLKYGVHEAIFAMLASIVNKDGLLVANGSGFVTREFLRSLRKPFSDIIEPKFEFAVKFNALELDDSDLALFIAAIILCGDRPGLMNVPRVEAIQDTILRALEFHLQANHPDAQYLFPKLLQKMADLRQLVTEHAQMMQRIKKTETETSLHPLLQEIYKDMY
Outline: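 A PPARd-bla HEK293H line with beta-lactamase under an Upstream Activator Sequence is treated with compounds at 37 C. Substrate loading for 2 h at room temperature precedes the fluorescence measurement.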

[9] = qHTS assay to identify small molecule antagonists of the peroxisome proliferator-activated receptor delta (PPARd) signaling pathway - cell viability counter screen (AID 743213); settings: PPARd-bla HEK293H viability, CellTiter-Glo luminescence, 17 h; viability change, negative = cytotoxic: at 62 µM (top of the series) unless noted; note: nearly all actives have a fitted effect of over 50% in size
Outline: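 PPARd-bla HEK293H cells (3000/well) got compound plus 300 nM L165041 agonist for 17 h at 37 C. Viability in the same wells came from CellTiter-Glo luminescence after 30 min at room temperature.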

[10] = target: Peroxisome proliferator-activated receptor delta (Homo sapiens) (UniProt Q03181); assay: qHTS assay to identify small molecule antagonists of the peroxisome proliferator-activated receptor delta (PPARd) signaling pathway (AID 743215; active = well fitted inhibition curve with a large enough effect in the signal ratio in the repeat runs, not every such curve was filed as active; inconclusive = weak or mixed curves, or effect the other way; inactive = no such curve, though single readings can be large or run the other way; the % refers to the signal ratio;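 note: cells stimulated with agonist L165041 at 300 nM final during compound exposure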); settings: HEK293H PPARd-UAS-bla, beta-lactamase FRET ratio, antagonist, 17 h; ratio activity, negative = inhibition: at 62 µM (top of the series) unless noted
Outline: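 PPARd UAS-bla HEK293H cells were pre-incubated 5 h at 37 C, then given test compounds in DMSO plus agonist L165041 (300 nM final). After 17 h at 37 C, beta-lactamase FRET substrate was added; fluorescence read after 2 h at room temperature.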

[11] = qHTS assay to identify small molecule antagonists of the farnesoid-X-receptor (FXR) signaling pathway - cell viability counter screen (AID 743221; active = well fitted cell-killing curve with a large enough effect in the repeat runs, not every such curve was filed as active; inconclusive = weak or mixed curves, or effect the other way; inactive = no such curve, though single readings can be large or run the other way; note: nearly all actives have a fitted effect of over 50% in size); settings: FXR-bla HEK293T viability, CellTiter-Glo luminescence, 16 h; activity change, negative = cytotoxicity: at 62.6 µM (top of the series)
Outline: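 Cytotoxicity counter screen run in the FXR-bla reporter wells: HEK 293T cells exposed to compound with 50 uM (final) chenodeoxycholic acid for 16 h, 37 C, then viability measured by CellTiter-Glo luminescence after 30 min, room temperature.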

[12] = target: Peroxisome proliferator-activated receptor gamma (Homo sapiens) (UniProt P37231); assay: qHTS assay to identify small molecule agonists of the peroxisome proliferator-activated receptor gamma (PPARg) signaling pathway (AID 743094; active = well fitted activation curve with a large enough effect in the signal ratio in the repeat runs, not every such curve was filed as active; inconclusive = weak or mixed curves, or effect the other way; inactive = no such curve, though single readings can be large or run the other way; the % refers to the signal ratio); settings: HEK293H PPARg-UAS-bla, beta-lactamase FRET ratio, 17 h; activation: at 57 µM (top of the series) unless noted
Outline: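 GeneBLAzer PPARg UAS-bla HEK293H cells carrying a stably integrated beta-lactamase reporter were pre-incubated 5 h at 37C, then exposed to compounds in DMSO for 17 h at 37C; LiveBLAzer B/G FRET substrate was added for 1 h at room temperature and fluorescence read.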

[13] = target: Bile acid receptor (Homo sapiens) (UniProt Q96RI1); assay: qHTS assay to identify small molecule antagonists of the farnesoid-X-receptor (FXR) signaling pathway (AID 743217; active = well fitted inhibition curve with a large enough effect in the signal ratio in the repeat runs, not every such curve was filed as active; inconclusive = weak or mixed curves, or effect the other way; inactive = no such curve, though single readings can be large or run the other way; the % refers to the signal ratio); settings: HEK293T FXR-UAS-bla, beta-lactamase ratio, CDCA-stimulated, 16 h; activity change, negative = inhibition: at 62.6 µM (top of the series) unless noted
Chain of UniProt Q96RI1 (Q96RI1 whole entry, looked up): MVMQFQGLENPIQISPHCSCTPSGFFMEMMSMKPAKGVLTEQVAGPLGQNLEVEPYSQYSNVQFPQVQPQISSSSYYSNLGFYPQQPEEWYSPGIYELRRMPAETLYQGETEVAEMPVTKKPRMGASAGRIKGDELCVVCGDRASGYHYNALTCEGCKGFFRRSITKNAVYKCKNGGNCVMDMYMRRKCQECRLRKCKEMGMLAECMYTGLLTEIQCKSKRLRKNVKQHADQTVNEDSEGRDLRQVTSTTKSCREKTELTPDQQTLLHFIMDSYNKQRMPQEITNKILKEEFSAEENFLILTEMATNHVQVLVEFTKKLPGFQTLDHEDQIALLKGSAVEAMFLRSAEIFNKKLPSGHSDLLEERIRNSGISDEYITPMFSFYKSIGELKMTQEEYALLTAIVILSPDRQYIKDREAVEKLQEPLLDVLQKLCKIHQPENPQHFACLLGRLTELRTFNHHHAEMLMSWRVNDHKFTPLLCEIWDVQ
Outline: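 FXR-UAS-bla HEK 293T cells pre-incubated 5 h at 37 °C, then exposed to compounds with chenodeoxycholic acid (50 uM final) for 16 h at 37 °C. Beta-lactamase reporter read by LiveBLAzer B/G FRET substrate fluorescence after 2 h at room temperature.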

[14] = target: Bile acid receptor (Homo sapiens) (UniProt Q96RI1); assay: qHTS assay to identify small molecule agonists of the farnesoid-X-receptor (FXR) signaling pathway (AID 743220; active = well fitted activation curve with a large enough effect in the signal ratio in the repeat runs, not every such curve was filed as active; inconclusive = weak or mixed curves, or effect the other way; the % refers to the signal ratio); settings: HEK293T FXR-UAS-bla, beta-lactamase FRET ratio, 16 h; activation: at 62.6 µM (top of the series) unless noted
Outline: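 Beta-lactamase reporter under UAS control in GeneBLAzer FXR HEK 293T cells (5000/well) measured with LiveBLAzer FRET substrate after 2 h at room temperature. Compound exposure lasted 16 h at 37C.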

[15] = target: Vitamin D3 receptor (Homo sapiens) (UniProt P11473); assay: qHTS assay to identify small molecule agonists of the vitamin D receptor (VDR) signaling pathway (AID 743222; calls by dose curve); settings: HEK293T VDR-UAS-bla, beta-lactamase FRET ratio, 16 h; activation: at 63.5 µM (top of the series) unless noted
Chain of UniProt P11473 (P11473 whole entry, looked up): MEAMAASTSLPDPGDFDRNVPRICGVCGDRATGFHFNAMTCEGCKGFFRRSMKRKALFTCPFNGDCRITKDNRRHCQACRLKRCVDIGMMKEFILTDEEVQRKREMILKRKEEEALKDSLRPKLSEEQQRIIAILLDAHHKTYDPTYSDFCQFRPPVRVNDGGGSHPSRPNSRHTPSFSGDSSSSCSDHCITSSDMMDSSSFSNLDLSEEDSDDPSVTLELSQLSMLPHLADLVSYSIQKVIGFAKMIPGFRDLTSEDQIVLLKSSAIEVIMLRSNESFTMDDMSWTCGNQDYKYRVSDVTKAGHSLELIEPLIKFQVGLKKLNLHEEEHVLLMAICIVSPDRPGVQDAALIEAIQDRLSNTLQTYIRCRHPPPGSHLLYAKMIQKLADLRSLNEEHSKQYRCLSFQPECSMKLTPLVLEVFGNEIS
Outline: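 VDR-bla cells were plated 4 h at 37C/5% CO2, then exposed to compounds in DMSO for 16 h. After LiveBLAzer B/G FRET substrate addition and 2 h at room temperature, beta-lactamase reporter fluorescence was read.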

[16] = qHTS assay to identify small molecule antagonists of the peroxisome proliferator-activated receptor gamma (PPARg) signaling pathway - cell viability counter screen (AID 743194); settings: PPARg-bla HEK293H viability, CellTiter-Glo luminescence, 17 h, co-treated with 50 nM rosiglitazone; activity change, negative = cytotoxicity: at 62.6 µM (top of the series); note: nearly all actives have a fitted effect of over 55% in size
Outline: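 PPARg-UAS-bla HEK293H cells were plated, rested 5 h at 37 C, then treated with compounds plus rosiglitazone (50 nM final) for 17 h at 37 C; viability was then read by CellTiter-Glo luminescence after 30 min at room temperature.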

[17] = qHTS assay to identify small molecule agonists of the farnesoid-X-receptor (FXR) signaling pathway - cell viability counter screen (AID 743218); settings: FXR-bla HEK293T viability, CellTiter-Glo luminescence, 16 h; viability change, negative = cytotoxic: at 62.6 µM (top of the series) unless noted; note: nearly all actives have a fitted effect of over 45% in size
Outline: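 FXR-UAS-bla HEK 293T cells, plated 5 h at 37 C, were exposed to compounds for 16 h at 37 C. CellTiter-Glo was then added to the same wells as the bla readout; luminescence read after 30 min at room temperature.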

[18] = target: Vitamin D3 receptor (Homo sapiens) (UniProt P11473); assay: qHTS assay to identify small molecule antagonists of the vitamin D receptor (VDR) signaling pathway (AID 743223; active = well fitted inhibition curve with a large enough effect in the signal ratio in the repeat runs, not every such curve was filed as active; inconclusive = weak or mixed curves, or effect the other way; inactive = no such curve, though single readings can be large or run the other way; the % refers to the signal ratio); settings: VDR-UAS-bla HEK293T, beta-lactamase FRET ratio, 16 h; activity change, negative = inhibition: at 61 µM (top of the series) unless noted
Outline: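 Antagonist mode: compound added to VDR-bla cells alongside agonist 1alpha,25-dihydroxyvitamin D3 (3 nM final), incubation 16 h at 37C. Read-out is LiveBLAzer FRET fluorescence, 2 h at room temperature.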
Potency is the fitted concentration of half-maximal effect; tags give direction and shape of the fitted curve or compound fluorescence and quenching.

O=Cc1ccccc1C=O
Potency [1]: inconclusive: 33.5 µM [cytotoxic, single point] and active: 17.2 µM | Potency [2]: inconclusive: 8.63 µM [falling, full curve] | Potency [3]: inconclusive: 6.16 µM [rising, full curve] | Potency [4]: inconclusive: 1.22 µM [rising, partial curve, poor fit] | Potency [5]: inconclusive: 0.389 µM [cytotoxic, full curve, poor fit] | Potency [6]: inconclusive: 13 µM | Potency [7]: inconclusive: 7.76 µM [cytotoxic, full curve] and inactive | Potency [8]: inconclusive: 17.4 µM [rising, partial curve] | Potency [9]: active: 24.5 µM | Potency [10]: inconclusive: 21.9 µM [rising, full curve] | Potency [11]: inconclusive: 24.5 µM [falling, partial curve]

Cc1cccc2c1cc1ccc3cccc4ccc2c1c34
Potency [1]: inconclusive: 1.76 µM [rising, full curve] | Potency [2]: inconclusive: 3.14 µM [rising, full curve, poor fit] | Potency [12]: inconclusive: 11.2 µM [fluorescent, full curve, poor fit] | Potency [3]: inconclusive: 50.1 µM [fluorescent, partial curve] | Potency [4]: inconclusive: 44.3 µM [rising, partial curve] | Potency [8]: inconclusive: 5.01 µM [rising, full curve] | Potency [10]: inconclusive: 6.31 µM [activator, partial curve] | Potency [13]: inconclusive: 4.47 µM [activator] | Potency [14]: inconclusive: 44.7 µM [fluorescent, partial curve] | Potency [11]: inconclusive: 56.2 µM [falling, single point] | Potency [15]: active: 3.16 µM

C[C@H](CCC(=O)O)[C@H]1CC[C@H]2[C@@H]3CC[C@@H]4C[C@H](O)CC[C@]4(C)[C@H]3C[C@H](O)[C@]12C
Potency [1]: inactive and inconclusive: 48.7 µM [cytotoxic, partial curve, poor fit] | Potency [12]: inconclusive: 2.46 µM [rising, full curve] | Potency [3]: inactive | Potency [16]: inconclusive: 61.9 µM [cytotoxic, single point] | activation [4]: inconclusive: 28.7% [at 94.8 µM] | Potency [5]: inconclusive: 0.0069 µM [rising, full curve, poor fit] | Potency [7]: inconclusive: 55.1 µM [cytotoxic, single point] | Potency [8]: inconclusive: 27.6 µM [rising, partial curve] | Potency [9]: inconclusive: 55.1 µM [cytotoxic, single point] | Potency [10]: inconclusive: 13.9 µM [activator, partial curve, poor fit] | activity change, negative = inhibition [13]: inconclusive: -24.8% [at 81.1 µM] | Potency [17]: inconclusive: 61.9 µM [cytotoxic, single point] | Potency [14]: active: 49.1 µM | Potency [11]: inconclusive: 77.9 µM [falling, partial curve, poor fit] | Potency [15]: inconclusive: 55.1 µM [rising, partial curve] | Potency [18]: inconclusive: 55.1 µM

COC1=C(OC)C(=O)C(CCCCCCCCCCO)=C(C)C1=O
Potency [1]: inconclusive: 33.5 µM [cytotoxic, single point] | activation [12]: inconclusive: -14.4% | Potency [3]: inconclusive: 29.8 µM [rising, partial curve, poor fit] | Potency [4]: inactive | Potency [5]: inconclusive: 21.1 µM [cytotoxic, partial curve, poor fit] | Potency [7]: inconclusive: 29.8 µM [cytotoxic] | activation [8]: inconclusive: -7.28% | Potency [10]: active: 26.6 µM | activity change, negative = inhibition [13]: inconclusive: -32.2% | Potency [14]: inactive | Potency [18]: inconclusive: 26.8 µM

CCCCOCCOCCO
Potency [1]: inconclusive: 21.7 µM [cytotoxic, full curve] | Potency [12]: inconclusive: 48.9 µM [activator, partial curve, poor fit] | ratio activity, negative = inhibition [3]: inconclusive: 15.5% [at 81.1 µM] | Potency [6]: inactive | Potency [7]: inactive | activity change, negative = inhibition [18]: inconclusive: -0.389%

C#C[C@]1(OC(C)=O)CC[C@H]2[C@@H]3CCC4=C/C(=N/O)CC[C@@H]4[C@H]3CC[C@@]21CC
Potency [1]: inconclusive: 33.5 µM [cytotoxic, single point] | Potency [12]: inconclusive: 26.8 µM [falling, single point] | Potency [3]: inconclusive: 37.6 µM [inhibitor, single point] | Potency [16]: inconclusive: 33.5 µM [cytotoxic, single point] | activation [4]: inconclusive: -13.8% | Potency [5]: inconclusive: 29.8 µM [cytotoxic] | Potency [7]: inconclusive: 33.5 µM [cytotoxic, single point] | Potency [13]: inconclusive: 33.5 µM | Potency [17]: inconclusive: 33.5 µM [cytotoxic, single point] | Potency [11]: inconclusive: 33.5 µM [falling, single point]

O=C1c2ccccc2Cc2ccccc21
Potency [1]: inconclusive: 4.36 µM [cytotoxic, full curve] | Potency [12]: inactive | ratio activity, negative = inhibition [3]: inconclusive: 9.01% [at 81.1 µM] | Potency [6]: inactive
